Results reported in article PMC5398727, “GP73 represses host innate immune response to promote virus replication by facilitating MAVS and TRAF6 degradation” (PLoS Pathogens, 2017).
Results are given in words; binding and its absence hold for the method and conditions named. Binding seen in cells or lysates may run through a third protein. Some results given as binding are weak or reduced against the parent protein; the word gives no strength. Where a sequence is shown, tags or fusion partners need not be part of it.

Protein sequences, listed by entry. Tags and fused reporters are not part of them. Lines headed by an entry give the natural chain unless they say otherwise; changes in a name come on top. Chains listed by the source or under a name are the forms on record and can include a tag or linker. Residues count along the entry.
UniProt Q7Z434: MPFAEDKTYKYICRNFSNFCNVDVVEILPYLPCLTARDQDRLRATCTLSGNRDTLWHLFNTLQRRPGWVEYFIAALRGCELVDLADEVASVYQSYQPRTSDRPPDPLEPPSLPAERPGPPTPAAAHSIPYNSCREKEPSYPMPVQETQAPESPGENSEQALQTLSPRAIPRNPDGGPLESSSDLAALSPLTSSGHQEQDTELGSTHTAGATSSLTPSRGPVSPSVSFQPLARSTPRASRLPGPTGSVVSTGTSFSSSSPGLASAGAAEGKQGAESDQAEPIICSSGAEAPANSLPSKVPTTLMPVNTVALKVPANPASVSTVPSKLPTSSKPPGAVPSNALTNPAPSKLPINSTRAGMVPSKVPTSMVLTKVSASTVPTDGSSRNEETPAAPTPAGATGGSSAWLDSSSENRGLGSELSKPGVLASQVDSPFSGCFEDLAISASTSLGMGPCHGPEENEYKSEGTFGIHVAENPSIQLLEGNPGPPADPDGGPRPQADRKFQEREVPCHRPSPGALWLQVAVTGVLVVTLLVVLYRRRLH
MAVS (1–510): residues 1-510 of Q7Z434
MAVS (1–467): residues 1-467 of Q7Z434
MAVS (1–440): residues 1-440 of Q7Z434
MAVS (361–540): residues 361-540 of Q7Z434
M14 MAVS (1–90/181–540) (Q7Z434, form named): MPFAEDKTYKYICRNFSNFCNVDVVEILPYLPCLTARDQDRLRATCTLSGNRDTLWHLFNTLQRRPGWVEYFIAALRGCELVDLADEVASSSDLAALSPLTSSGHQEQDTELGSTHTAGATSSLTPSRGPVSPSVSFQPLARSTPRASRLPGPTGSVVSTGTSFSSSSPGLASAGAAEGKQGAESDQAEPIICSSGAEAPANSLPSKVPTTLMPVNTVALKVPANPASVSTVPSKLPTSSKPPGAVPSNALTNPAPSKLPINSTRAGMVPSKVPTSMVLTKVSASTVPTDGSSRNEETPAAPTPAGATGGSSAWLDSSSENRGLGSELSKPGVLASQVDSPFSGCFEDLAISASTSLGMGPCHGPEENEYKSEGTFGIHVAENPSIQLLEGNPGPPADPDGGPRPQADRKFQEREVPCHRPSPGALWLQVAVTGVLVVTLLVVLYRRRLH
M11 MAVS (1–90/441–540) (Q7Z434, form named): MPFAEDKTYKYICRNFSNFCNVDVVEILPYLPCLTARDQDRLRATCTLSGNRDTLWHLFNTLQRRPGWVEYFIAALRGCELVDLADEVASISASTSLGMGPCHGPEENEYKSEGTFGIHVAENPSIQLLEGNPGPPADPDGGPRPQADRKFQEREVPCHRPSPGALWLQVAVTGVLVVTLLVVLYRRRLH
M12 MAVS (1–180/441–540) (Q7Z434, form named): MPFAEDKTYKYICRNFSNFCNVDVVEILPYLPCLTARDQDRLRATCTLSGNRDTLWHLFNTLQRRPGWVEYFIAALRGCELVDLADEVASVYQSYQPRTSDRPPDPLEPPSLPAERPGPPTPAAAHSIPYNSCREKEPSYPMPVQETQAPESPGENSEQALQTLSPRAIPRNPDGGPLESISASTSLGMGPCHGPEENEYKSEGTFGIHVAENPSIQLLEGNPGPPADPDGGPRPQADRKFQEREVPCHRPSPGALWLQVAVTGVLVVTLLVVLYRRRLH
M15 MAVS (1–90/468–540) (Q7Z434, form named): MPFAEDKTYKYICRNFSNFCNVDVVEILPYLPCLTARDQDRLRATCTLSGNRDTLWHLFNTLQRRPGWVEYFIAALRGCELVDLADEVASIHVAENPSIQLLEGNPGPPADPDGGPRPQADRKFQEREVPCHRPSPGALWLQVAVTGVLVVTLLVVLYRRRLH
M17 MAVS (1–180/468–540) (Q7Z434, form named): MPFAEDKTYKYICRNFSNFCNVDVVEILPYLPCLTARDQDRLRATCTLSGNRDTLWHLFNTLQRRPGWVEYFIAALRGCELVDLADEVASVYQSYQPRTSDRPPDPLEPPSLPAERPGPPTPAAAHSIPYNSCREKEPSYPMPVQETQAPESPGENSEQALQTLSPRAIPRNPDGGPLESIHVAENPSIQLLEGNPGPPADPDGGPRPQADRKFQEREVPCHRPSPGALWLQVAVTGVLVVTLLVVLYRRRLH

Key:
Experiment in all cases: co-IP; HEK293 co-transfected with GP73 plasmid and Flag-tagged (or indicated) plasmids for 24 h; lysis in 50 mM Tris-HCl, 150 mM NaCl, 1% Triton X-100, 1 mM EDTA, 10% glycerol, pH 7.4; immunoprecipitated with anti-Flag (or IgG), washed with 300 mM NaCl buffer, WB; Fig 3B, 3C, 4C-F, S4B (for Fig 4C-F the antibodies are only 'indicated')
MAVS (1–440) = MAVS (1–440) (UniProt Q7Z434)
M14 MAVS (1–90/181–540) = M14 MAVS (1–90/181–540) (UniProt Q7Z434)
M11 MAVS (1–90/441–540) = M11 MAVS (1–90/441–540) (UniProt Q7Z434)
MAVS (1–467) = MAVS (1–467) (UniProt Q7Z434)
M12 MAVS (1–180/441–540) = M12 MAVS (1–180/441–540) (UniProt Q7Z434)
Flag-IRF3 = molecular target: T1, Flag-IRF3 (UniProt Q14653)
T1 sequence: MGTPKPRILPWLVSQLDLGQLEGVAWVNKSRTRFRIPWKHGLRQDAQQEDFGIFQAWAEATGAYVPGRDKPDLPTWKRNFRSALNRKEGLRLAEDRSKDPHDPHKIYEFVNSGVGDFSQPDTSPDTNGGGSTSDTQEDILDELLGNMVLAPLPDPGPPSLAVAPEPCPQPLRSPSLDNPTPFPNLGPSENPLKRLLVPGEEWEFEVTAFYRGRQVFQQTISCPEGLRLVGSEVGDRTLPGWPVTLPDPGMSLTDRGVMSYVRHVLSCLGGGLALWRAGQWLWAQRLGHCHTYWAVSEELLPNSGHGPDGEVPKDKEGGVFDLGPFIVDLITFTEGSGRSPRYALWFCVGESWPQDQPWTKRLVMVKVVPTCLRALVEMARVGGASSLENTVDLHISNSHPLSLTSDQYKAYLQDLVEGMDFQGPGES

MAVS (361–540) = MAVS (361–540) (UniProt Q7Z434)
MAVS (1–510) = MAVS (1–510) (UniProt Q7Z434)
M15 MAVS (1–90/468–540) = M15 MAVS (1–90/468–540) (UniProt Q7Z434)
M17 MAVS (1–180/468–540) = M17 MAVS (1–180/468–540) (UniProt Q7Z434)
[1] = molecular target: Flag-MAVS (mitochondrial antiviral signaling protein), full length (UniProt Q7Z434)

Measured: binding

B1: HA-GP73 (Golgi protein 73) (protein, UniProt Q8NBJ4 1-401)
chain: MMGLGNGRRSMKSPPLVLAALVACIIVLGFNYWIASSRSVDLQTRIMELEGRVRRAAAERGAVELKKNEFQGELEKQREQLDKIQSSHNFQLESVNKLYQDEKAVLVNNITTGERLIRVLQDQLKTLQRNYGRLQQDVLQFQKNQTNLERKFSYDLSQCINQMKEVKEQCEERIEEVTKKGNEAVASRDLSENNDQRQQLQALSEPQPRLQAAGLPHTEVPQGKGNVLGNSKSQTPAPSSEVVLDSKRQVEKEETNEIQVVNEEPQRDRLPQEPGREQVVEDRPVGGRGFGGAGELGQTPQVQAALSVSQENPEMEGPERDQLVIPDGQEEEQEAAGEGRNQQKLRGEDDYNMDENEAESETDKQAALAGNDRNIDVFNVEDQKRDTINLLDQREKRNHTL
binds weakly: M17 MAVS (1–180/468–540)
binds: M14 MAVS (1–90/181–540) | M11 MAVS (1–90/441–540) | M12 MAVS (1–180/441–540) | [1]
no binding: all other assays above
